Laboratory results: PubChem BioAssay AID1508624 (National Center for Advancing Translational Sciences (NCATS), 2021)
Hit rate of the full screen: of about 48,000 compounds, about 120 (0.25%) were called active. Inconclusive results (about 4%) are left out. Calls come from the whole dose curve; as a rule, active = well fitted activation curve with a large enough effect; inconclusive = small, poorly fitted or top-dose-only effect, or another doubt; inactive = no such curve, though single readings can be large or run the other way. Some of the results follow.

Experiment: Primary qHTS for Identification of Small Molecule Activators of Huntingtin-Antisense Promoter Activity; note: nearly all actives have a fitted effect of over 55% in size
Settings: HEK293 HTT-AS promoter firefly luciferase reporter, 24 h; series mostly up to 57.5 µM; activity change, positive = activation: at the top concentration
Procedure, shortened: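 Quantitative HTS used concentration series of up to 57.5 uM final on HEK293 luciferase reporter cells, 24 h at 37 degrees C. Readout was Dual-Glo firefly luminescence.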

Activity change, positive = activation, inactive:
CCN(c1cc(C)cc(C)c1)S(=O)(=O)c1nnc(NC(=O)c2cccs2)s1 -20.7%
CCOc1ccc(-n2c(CCC(=O)O)ccc2-c2ccc(Br)cc2)cc1 13.3%
CCc1ccc(NC(=O)C(=O)NCCc2csc(-c3ccc(C(F)(F)F)cc3)n2)cc1 7.58%
Cc1cc(C)c(NC(=O)Cn2c(=O)n(Cc3ccc4c(c3)OCO4)c(=O)c3ccc(C(=O)NC4CCCCC4)cc32)c(C)c1 -10.6%
O=C(NCc1ccccc1F)c1ccc(CN2CC(=O)N3CCCCC3C2=O)cc1 (configuration not stated) -7.74%
COc1cccc(C(=O)N2c3cc(C)ccc3C(C)(c3ccccc3)CC2(C)C)c1 (configuration not stated) -26.2%
N#C/C(=C\c1ccc(Cl)cc1)c1nc(-c2cc3ccccc3oc2=O)cs1 2.88%
CCOC(=O)c1sc2cccc(F)c2c1S(=O)(=O)N1CCN(c2cccc(Cl)c2)CC1 -28.1%
CCCn1c2ccccc2c2cnn(CC(=O)N3CCC(C)CC3)c(=O)c21 -11.9%
CCc1ccc(CNC(=O)c2cnc3sc4cc(OC)ccc4n3c2=O)cc1 -3.2%
Cc1cccc(C)c1Nc1sc(C(=O)c2ccccc2)c(N)c1C(=O)Nc1ccc(F)cc1 -20.3%
COc1cccc(-c2ccc3c(N)c(C(=O)c4ccc(Cl)cc4)sc3n2)c1 -15.9%
CCC(C)NC(=O)Cn1ncc2c([nH]c3ccc(C)cc32)c1=O (configuration not stated) -24.6%
CCOc1ccccc1NC(=O)Cn1c(=O)n(Cc2ccccc2)c(=O)c2c(C)c(C)sc21 -11.5%
CCc1cccc(NC(=O)Cn2nc(-c3ccc(OC)cc3)ccc2=O)c1 -4.9%
O=C(Nc1nc2n(n1)C(c1ccccc1)C=C(c1ccccc1)N2)c1ccc(Cl)c([N+](=O)[O-])c1 (configuration not stated) -9.8%
CCOC(=O)c1ccc(N2C(=O)c3n[nH]c(-c4cccs4)c3C2c2ccc(C(C)(C)C)cc2)cc1 (configuration not stated) -23.2%
CCOC(=O)c1[nH]c(C)c(CCC(=O)NCc2ccc(OCC)cc2)c1C -6.98%
Cc1ccc(NC(=O)c2c(C)oc3ccc(O)c(CN4CCCCCC4)c23)c(C)c1 -22.8%
CC(C)OCCCNC(=O)c1cc2c(-c3ccc(Cl)cc3)nn(C)c2s1 -38.3%
COc1cc(NC(=O)C2CCCN(S(=O)(=O)c3ccc4c(c3)oc(=O)n4C)C2)c(C(=O)O)cc1OC (configuration not stated) -3.85%
CCCCC(Sc1nc2cc3c(cc2c(=O)n1CCCC(=O)NCc1ccc(OC)cc1)OCO3)C(=O)OCC (configuration not stated) -22.9%
CC(C(=O)NCc1ccccc1F)n1ccc2cc(S(=O)(=O)N3CCCC3)ccc21 (configuration not stated) -4.92%
CCOc1ccccc1NC(=O)c1c(NC(=O)c2cccc(C)c2)sc2c1CCCC2 -12.5%
CCc1ccccc1NC(=O)Nc1cc(C(=O)NCc2ccc(C)cc2)ccc1N1CCCC1 3.25%
CC1CN(C(=O)Nc2ccc(C(=O)NCc3cccc(F)c3)cc2)c2ccccc2S1 (configuration not stated) -14.7%
O=C(Nc1ccccc1Cl)N1CCC(CN2CCCCC2)CC1 6.87%
O=C(Nc1ccc(C(F)(F)F)cc1)C1CCCN(c2cnccn2)C1 (configuration not stated) -11%
O=c1c(S(=O)(=O)c2ccccc2)cn(Cc2ccccc2)c2cc(N3CCOCC3)c(F)cc12 -29.8%
C[C@H]1[C@H]2CC[C@H]3[C@@H]4CC=C5C[C@@H](N(C)C)CC[C@]5(C)[C@H]4CC[C@]23CN1C -12.9%
COc1ccc(Nc2ncc3c(n2)CCN(Cc2cc(Br)cs2)C3)c(OC)c1 -5.6%
CC(C)C(=O)c1c(C(C)C)nn2ccccc12 -3.92%
COc1ccccc1NC(=O)c1cc2c(=O)oc3ccc(C)cc3c2s1 -11.9%
Cc1ccc(NC(=O)CSc2nc3c(oc4ccccc43)c(=O)n2-c2ccc(F)cc2)c(C)c1 -27.4%
CCCCOc1ccccc1C(=O)N(Cc1ccc(C)o1)C1CCS(=O)(=O)C1 (configuration not stated) -9.72%
O=C(O)CSc1c2c(nc3cc(C(=O)Nc4ccc(F)c(Cl)c4)ccc13)CCC2 -30.8%
Cn1nc(-c2ccc(C(=O)Nc3ccc(F)cc3)cc2)c2ccccc2c1=O -43%
COCCCNC(=O)CCCCn1c(=O)c2ccccc2n(CC(=O)Nc2ccc(C)cc2C)c1=O -23%
C=Cc1ccc(Cn2nc(-c3ccc(C)c(S(=O)(=O)N(CC)CC)c3)ccc2=O)cc1 -21.2%
COc1ccc2cc(-c3nc4ccc(C(=O)O)cc4[nH]3)c(=O)oc2c1 -79.7%
Cc1cccn2c(=O)c3cc(C#N)c(=O)n(-c4nnc(SCc5ccccc5F)s4)c3nc12 -0.155%
CC(C)c1ccc(S(=O)(=O)NCc2ccc3c(c2)CCN3C(=O)c2ccccc2)cc1 -27.4%
COCCNC(=O)CSc1nc2cc3c(cc2c(=O)n1CCCCCC(=O)NCc1ccc(OC)cc1)OCO3 -5.88%
COc1ccc(CNC(=O)c2ccc3c(c2)nc2n3CCC(C)C2)c(OC)c1 (configuration not stated) 5.45%
CCOc1ccccc1NC(=O)Cn1nnc2sc(-c3ccccc3)cc2c1=O -12.9%
CCSc1ncc(Cl)c(C(=O)Nc2ccc(S(=O)(=O)N(C)c3ccccc3)cc2)n1 -23.3%
CCCSCCCNC(=O)c1ccc2nc(Cc3ccccc3)oc2c1 -11%
Cc1cc(Nc2cccc(Cl)c2)nc2ccc(NC(=O)c3cccnc3)cc12 -60.1%
CCc1ccc(CNC(=O)CN2CCSc3ccccc32)cc1 -11.8%
Cc1ccc(NC(=O)C(=O)NCC2(c3ccccc3)CCCC2)cc1Cl 10.7%
O=C(NCCc1ccccc1)c1cnn(-c2ccc(F)cc2)c1-n1cccc1 -25.7%
CCOC(=O)N1CCc2c(sc3c2c(=O)n(CCc2ccccc2)c(=O)n3Cc2c(F)cccc2Cl)C1 -7.63%
Cc1ccc(NC(=O)CSc2nc3n[nH]c(C)c3c(=N)n2-c2cccc(C)c2)cc1 -40.7%
O=C(CN1C(=O)COc2ccc(S(=O)(=O)N3CCCCCC3)cc21)NCc1ccc(F)cc1 -16.7%
COc1ccc(N2CCN(c3oc(/C=C/c4cc(OC)c(OC)c(OC)c4)nc3C#N)CC2)cc1 -14.3%
COc1cc(C(=O)Nc2ccc3oc(-c4ccc(C)c(Br)c4)nc3c2)cc(OC)c1OC 22.6% [at 11.5 µM, percent change from vehicle, -100% = no light]
Cc1cc(C)cc(Oc2nc3c(c(=O)n(C)c(=O)n3C)n2Cc2ccc(F)cc2)c1 3.58%
COc1ccc(F)cc1S(=O)(=O)NCCc1sc2nc(-c3ccc(F)cc3)nn2c1C -19.1%
CCc1nnc(SCC(=O)Nc2ccc(F)cc2F)c2cc3sc(C)cc3n12 3.1%
COc1ccc(Nc2cc(C(=O)NCc3ccccc3OC)c3ccccc3n2)cc1 1.48%
Cc1cc(OCC(=O)N(Cc2sccc2C)C2CCS(=O)(=O)C2)ccc1Cl (configuration not stated) -23%
COc1ccc(CNC(=O)CN2C(=O)c3cccnc3Oc3ccc(C)cc32)cc1 -10.2%
Cc1cc(C)c2c(CC(=O)Nc3c(C(=O)Nc4ccc(Cl)cc4)oc4ccccc34)coc2c1 7.48%
CCc1cccc(C)c1NC(=O)CSc1nnc(CC)n2c1cc1occc12 -34.4%
CCOC(=O)C1CCCN(c2nc3c(S(=O)(=O)c4ccc(C)c(C)c4)nnn3c3ccc(Cl)cc23)C1 (configuration not stated) 12.3%
CCn1c(=O)c2sccc2n2c(CCC(=O)Nc3cc(C)cc(C)c3)nnc12 -4.85%
Cc1ccc(Cl)cc1N1CCN(c2ncnc3onc(C)c23)CC1 -34.8%
COc1cccc(N2CCN(C(=O)C3CCN(S(=O)(=O)c4ccc5c(c4)oc(=O)n5C)CC3)CC2)c1 -25.2%
COc1ccc2c(c1)CC(C(=O)NCCCN1CCN(c3ccc(F)cc3)CC1)CO2 (configuration not stated) -23.3%
COc1cccc(C(=O)Nc2cc3c(cc2C(=O)c2ccc(C)cc2)OCCO3)c1 -7.42%
Cc1cc(C)c2c(CC(=O)N(Cc3ccccc3)C3CCS(=O)(=O)C3)coc2c1 (configuration not stated) -18.2%
CCC(=O)N1CCc2cc(Br)cc(S(=O)(=O)N3CCCC(C(=O)N(C)c4ccc(Br)cc4)C3)c21 (configuration not stated) -42%
Cn1c(=O)oc2cc(S(=O)(=O)Nc3ccc(C(=O)O)cc3)ccc21 -3.69%
COc1ccccc1CNC(=O)c1ccc(-c2nc(CN3CCc4ccccc43)c(C)o2)cc1 -36.6%
Cc1ccc(OCC(=O)Nc2ccc3nc(SCC(=O)N4CCc5ccccc54)sc3c2)cc1 -13.5%
COc1ccc(NC(=O)c2cccn2-c2nnc(N3CCCCC3)s2)cc1 12.9%
Cn1cc(C(=O)N2CCN(c3cccc(C(F)(F)F)c3)CC2)c2c3ccccc3n(C)c2c1=O -41.4%
CC(=O)Nc1ccc(NC(=O)Cn2nc(C(=O)Nc3ccc(C)cc3)ccc2=O)cc1 -4.37%
O=C(O)CCn1cnc2onc(-c3cc(F)cc(F)c3)c2c1=O 12.5%
CCCOc1ccc(Oc2nc(NCC(C)C)nc(N3CCOCC3)n2)nn1 -12.5%
COc1ccccc1N1CCN(c2nc(-c3ccc(C)cc3)nc3ccccc23)CC1 -19.8%
COc1cccc(NC(=O)C2CCCN(S(=O)(=O)c3ccc4[nH]c(=O)ccc4c3)C2)c1 (configuration not stated) -9.63%
CC(C)(C)NC(=O)[C@H]1CC[C@H]2[C@@H]3CC[C@H]4NC(=O)C=C[C@]4(C)[C@H]3CC[C@]12C
O=C(Nc1ccc(OCc2cc(=O)n3c4c(sc3n2)CCCC4)cc1)c1ccccc1 -7.77%
CCOc1ccc(OCC)c(NS(=O)(=O)c2c(C(=O)N3CCC(C)CC3)c(C)n(C)c2C)c1 -16.8%
CCOc1ccc(NC(=O)CN(c2ccc(Cl)cc2C)S(=O)(=O)c2ccccc2)cc1 -24.1%
COc1ccc(N2CC(NC(=O)c3ccc4c(c3)OCO4)CC2=O)cc1 (configuration not stated) -1.6%
COc1ccc(NC(=O)CN(c2ccc(C)cc2)S(=O)(=O)c2cccc3nonc23)cc1OC 9.38%
Cc1ccc(-n2c(SCC(=O)O)nc3sc4c(c3c2=O)CCCC4)cc1 -8.84%
COc1cccc(-n2c(SCC(=O)c3ccc(Cl)cc3)nc3c([nH]c4ccccc43)c2=O)c1 -54.1%
COC(=O)Cn1c(=O)c2c(nc3n2CCN3c2ccc(F)cc2)n(C)c1=O -14.8%
CSc1ccc(CNC(=O)c2ccc(NC(=O)c3nsc4ccccc34)cc2)cc1 -58.4%
